Results from PubChem BioAssay AID1259400 (National Center for Advancing Translational Sciences (NCATS), 2018).
In all, about 350,000 compounds went through this assay and about 2,100 (0.6%) were called active. Inconclusive means that the source gave no clear call. Such entries were picked first, then a sample of the others.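 The calls were made as follows: active = activity change of -60% or lower, but not beyond a set lower limit; inconclusive = change between -60% and -40%, or beyond the set limit; inactive = change above -40%.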

Molecular target: Relaxin receptor 1 (Homo sapiens) (UniProt Q9HBX9)
Test: qHTS Assay for Antagonists of the Relaxin Receptor RXFP1
Conditions: HEK293-RXFP1, relaxin-stimulated cAMP HTRF, 30 min; at 57.5 µM; stronger effect = lower value
Text: The relaxin hormone is involved in the variety of biological functions in normal tissues and diseases. The role of relaxin is well-established in female reproduction and parturition, mammary gland and endometrial development, maintenance of myometrial quiescence during pregnancy. Relaxin signaling through its G protein-coupled receptor (GPCR) RXFP1 results in ECM remodeling through regulation of collagen deposition, cell invasiveness, proliferation and overall tissue homeostasis. […] Recombinant human relaxin (rhRlx) is currently being tested in clinical trials as a protective agent in congestive heart failure, in treating severe preeclampsia, and as an anti-fibrotic agent in various organs. […] Upon relaxin binding RXFP1 activation leads to the activation of adenylate cyclase (AC) via G?s. cAMP will activate PKA, which phosphorylates many signaling proteins. Thus, detection of cAMP increase is an easy and reliable indication of relaxin receptor activation. To screen for antagonists of the relaxin receptor, a HEK293T cell line stably transfected with RXFP1 was used. RXFP1 activation by relaxin in presence of various concentrations of tested compounds was assayed by changes in cAMP levels as detected with a time-resolved fluorescence energy transfer (TR-FRET) cAMP detection kit.
For the primary screening, we used HTRF(R) (Homogenous Time-Resolved Fluorescence) cAMP HiRange assay (Cisbio Bioassays, 62AM6PEJ). Presence of cAMP in the cell lysate disrupts binding between the Cryptate-labeled anti-cAMP and d2-labeled cAMP pair, leading to a decrease in TR-FRET signal. The libraries were screened at two doses (57microM and 11microM), followed by a confirmation of the hits at 7-point serial dilution in the range of final concentrations [57microM - 78nM]. Data were normalized to the controls for basal activity (buffer only) and 100% activity (5 nM porcine relaxin). The EC50 values were determined from concentration-response data modeled with the standard Hill equation. NCGC Assay Protocol Summary: HiHEK (Hawaiian HEK293 LGR7 stably transfected with human RXFP1) were grown in the following media: DMEM+10%FBS+Pen/Strep + Geneticin (1mg/ml). For the assay, the cells were seeded in DMEM+Pen/Strep (with no serum & selective antibiotics) at 2,100 cells/ 3microl/well with MultiDrop Combi dispenser (Thermo Scientific, Logan, UT) onto white tissue culture treated solid bottom1536-well plates (Greiner #789173-F) and allowed to attach/recover overnight at 37 degrees C, 5% CO2. Next, 23nl/well of compound solutions in DMSO were transferred into wells with a pintool (Kalypsis, San Diego, CA). […] EC80 (relaxin at 50pM final concentration) was dispensed to the rest of the plate except columns 1&2 which were used as a negative control (EC0, buffer only), 1microl/well also. The cells were stimulated by relaxin in the presence of compounds for 30 minutes at 37 degrees C, 5% CO2. The detection reagents were prepared individually by dilution in Lysis buffer (supplied with the assay kit) just prior to dispensing. 1microl/well of cAMP-d2 and 1microl/well anti-cAMP-Eu3+-Cryptate antibodies were added simultaneously with BioRAPTR FRDtrade mark Workstation (Beckman Coulter). The plates were incubated at ambient temperature for 30 minutes and, then, FRET signal was read on Envision plate reader (PerkinElmer, Waltham, MA), at wavelengths 340nm (excitation), 615nm & 665nm (emission of donor and acceptor channels respectively).
% is scaled to controls: 0 for no effect and ±100 for the full control effect.

UniProt Q9HBX9, sequence (Q9HBX9 whole entry, looked up): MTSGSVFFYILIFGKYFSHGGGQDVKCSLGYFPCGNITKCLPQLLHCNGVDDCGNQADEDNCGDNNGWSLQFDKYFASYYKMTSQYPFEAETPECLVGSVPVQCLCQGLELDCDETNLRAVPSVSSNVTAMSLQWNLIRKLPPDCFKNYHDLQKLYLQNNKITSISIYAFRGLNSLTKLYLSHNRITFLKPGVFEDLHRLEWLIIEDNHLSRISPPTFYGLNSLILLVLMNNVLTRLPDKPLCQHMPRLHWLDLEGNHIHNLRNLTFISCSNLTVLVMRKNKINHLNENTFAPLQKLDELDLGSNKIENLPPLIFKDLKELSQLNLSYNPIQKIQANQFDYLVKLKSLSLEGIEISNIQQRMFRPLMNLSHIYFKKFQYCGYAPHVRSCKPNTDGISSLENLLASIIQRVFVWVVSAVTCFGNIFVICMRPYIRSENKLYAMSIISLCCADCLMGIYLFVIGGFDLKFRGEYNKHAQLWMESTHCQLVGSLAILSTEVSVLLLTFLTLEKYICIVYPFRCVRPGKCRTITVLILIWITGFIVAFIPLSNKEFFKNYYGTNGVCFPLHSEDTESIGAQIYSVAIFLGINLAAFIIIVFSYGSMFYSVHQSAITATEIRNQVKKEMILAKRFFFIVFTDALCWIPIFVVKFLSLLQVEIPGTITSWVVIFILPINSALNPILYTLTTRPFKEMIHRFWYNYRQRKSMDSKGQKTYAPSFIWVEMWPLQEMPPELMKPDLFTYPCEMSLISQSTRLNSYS

SMILES | activity change, negative = inhibition
COc1ccc(CCNC(=O)Cn2c(=O)n(-c3ccc(F)cc3F)c(=O)c3sccc32)cc1OC | inconclusive: -40.8%
Cc1cc(C)cc(OCC(=O)NCC(c2ccc(Cl)cc2)N2CCCCC2)c1 (centres undefined) | inconclusive: -50.6%
O=C(O)c1ccccc1NCc1ccncc1 | inactive: -19.1%
Cc1ccc(C)c(Cn2c(=O)n(Cc3ccccc3)c(=O)c3c(C)c(C)sc32)c1 | inactive: -7.34%
C=CCN=c1scc(-c2ccco2)n1/N=C/c1ccc(O)c(O)c1O | inconclusive: -55.1%
O=C(Nc1ccc(Nc2ccccc2)cc1)c1ccccc1F | inconclusive: -49%
O=C(O)CCN1C(=O)c2ccc(NC(=O)Cc3ccc(Cl)cc3)cc2C1=O | inactive: -12.5%
O=C(NCCCc1ccccc1)c1nn(-c2ccccc2F)nc1CO | inactive: -25.2%
COc1ccc(C2c3ccc4ccccc4c3Oc3ncn(CCCN(C)C)c(=N)c32)cc1 (centres undefined) | inconclusive: -45%
Brc1csc(CN2CCc3nc(Nc4ccccc4)ncc3C2)c1 | inconclusive: -41.3%
COc1cc(OC)c(NC(c2nnc(-c3ccccc3)o2)c2ccc(F)cc2Cl)cc1Cl (centres undefined) | inconclusive: -41%
Cc1cc(C(=O)N/N=C/c2ccc([N+](=O)[O-])s2)c2ccccc2n1 | inactive: 14.4%
COc1ccccc1-c1nnc(N)s1 | inactive: -11.6%
CN1CCN(c2ccc(NC(=O)c3ccc(-c4ccc(Cl)cc4)o3)cc2)CC1 | inconclusive: -56.2%
CCCN(CCC)C(=O)Cn1c(=O)n(-c2cccc(C(F)(F)F)c2)c(=O)c2c(C)c(C)sc21 | inactive: -4.1%
O=C(Nc1ccc(-c2noc(-c3cccs3)n2)cc1)c1cccnc1 | inconclusive: -43.7%
S=c1[nH]c2cc(Cl)ccc2s1 | inconclusive: -54.8%
CCCCC12CN3CC(C)(CN(C1)C3c1cc(Br)ccc1O)C2=O (centres undefined) | inconclusive: -57.3%
Cn1c(=S)[nH]c2c(c1=O)C(C)(C)Cc1ccccc1-2 | inactive: 29.2%
COc1cccc(N(C(=O)c2snc(C(N)=O)c2N)C(C(=O)NCC2CCCO2)c2cccs2)c1 (centres undefined) | inconclusive: -47.5%
Cc1ccc(CNc2cnccn2)cc1 | inactive: 1.1%
COC(=O)c1cnn(C(=O)c2cc(OC)ccc2Br)c1N | inactive: 1.62%

SMILES | activity change, negative = inhibition
Cc1oc(-c2ccc(Cl)cc2)nc1CN1CCC(C(=O)NCc2ccco2)CC1 | inactive: 0.282%
CCOc1cc(CNc2ccc(N(C)C)cc2)cc(Br)c1OCC(=O)NC(C)(C)C | active: -109%
Cc1cccc(Nc2nc(-c3ccccc3)c(C(=O)Nc3cccnc3)s2)c1 | inconclusive: -47%
NS(=O)(=O)c1cc(C(=O)OCC(=O)Nc2ccc3[nH]c(=O)[nH]c3c2)ccc1Cl | inactive: 12.6%
CCOC(=O)C1(Cc2cccc(OC)c2)CCN(Cc2ccccc2)CC1 | inconclusive: -52.5%
Cc1ccc(-c2nc3sccn3c2Nc2ccc(C)c(C)c2)cc1 | inactive: -17.6%
CCOc1ccccc1/C=N\Nc1cnn(Cc2ccccc2)c(=O)c1Cl | inconclusive: -41.9%
O=C(O)c1ccccc1NC(=O)C(c1ccccc1)c1ccccc1 | inconclusive: -58.3%
Fc1ccc(-c2csc(Nc3ccccn3)n2)cc1 | inconclusive: -54.5%
CCCSC(=S)c1c(C)[nH]n(-c2ccccc2)c1=O | active: -70.3%
COc1ccccc1CN1CC(C(=O)NCCC2=CCCCC2)CCC1=O (centres undefined) | inconclusive: -55%
Cc1cccc(-n2nc(C)c(C(=O)Nc3cc(C)ccc3C)c2-n2cccc2)c1 | inconclusive: -55.3%
COc1ccc(CC(=O)Nc2ccc(-c3nc4ccccc4s3)c(C)c2)cc1OC | inactive: -4.57%
O=C(Nc1ccc(F)cc1)Nc1sccc1-c1nc2ccccc2s1 | inconclusive: -56.3%
CC(C)(C)OC(=O)NNC(=S)NC1CCCCC1 | inconclusive: -42.6%
O=C(Nc1ccc([N+](=O)[O-])cc1)Nc1ccc(OC(F)F)c(Cl)c1 | inconclusive: -55.1%
CC[C@H](C)NC(=O)CCCCCn1c(=S)[nH]c2c([nH]c3ccc(OC)cc32)c1=O | active: -79.9%
CCOC(=O)c1cnc(-n2nc(C)cc2C)nc1NC1CCCCC1 | inconclusive: -50.1%
O=[N+]([O-])c1ccc(-c2cn3c(n2)CCC3)cc1 | inactive: 1.18%
CC1(C)c2ssc(=S)c2-c2ccccc2N1C(=O)c1ccco1 | inactive: -2.41%
CCCCCC(O)(c1ccc(OC)cc1)C(CN1CCOCC1)c1ccccc1 (centres undefined) | active: -60.7%
O=C(Nc1ccc(Nc2ccccc2)cc1)c1ccc(Br)o1 | active: -68.1%
